The whole screen tested about 48,000 compounds, of which about 1,200 (2.5%) were called active. Not shown: some 2% with an inconclusive outcome.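 The calls were made as follows: active = activation of at least 60% and not above a set upper limit (about 1 call in 100 departs from these limits); inconclusive = activation of 40% to 60%, or above that upper limit; inactive = activation under 40%.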 This is one part of the list.
molecular target: Probable G-protein coupled receptor 32 (Homo sapiens) (UniProt O75388); experiment: qHTS for Agonists of Human Resolvin D1 Receptor DRV1; details: CHO-K1 GPR32 beta-arrestin PathHunter luminescence, 90 min; at 76.9 µM; hits give high values; zero percent set by DMSO-only wells
Method in brief: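 PathHunter enzyme-fragment complementation, CHO-K1 GPR32 stable line; 2,500 cells/well, overnight attach; cpd 90 min 37 °C 5% CO2; detection reagent 1 h RT; chemiluminescence. DMSO = EC0.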

Sequence of UniProt O75388 (O75388 whole entry, looked up, the tested form may be a part): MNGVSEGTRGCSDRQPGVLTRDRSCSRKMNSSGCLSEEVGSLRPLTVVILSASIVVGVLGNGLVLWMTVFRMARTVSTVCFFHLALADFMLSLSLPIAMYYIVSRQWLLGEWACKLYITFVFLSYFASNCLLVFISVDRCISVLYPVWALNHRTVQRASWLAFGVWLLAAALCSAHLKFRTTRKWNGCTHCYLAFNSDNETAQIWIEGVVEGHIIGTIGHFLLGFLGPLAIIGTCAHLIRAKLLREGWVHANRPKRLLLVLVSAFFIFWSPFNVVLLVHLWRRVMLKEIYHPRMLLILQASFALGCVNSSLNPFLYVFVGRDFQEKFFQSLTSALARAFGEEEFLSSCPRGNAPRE

activation, inactive:
Cc1ccc(C2C(=O)N(C3CCCCCC3)CC(=O)N2CCC2=CCCCC2)cc1 (stereo not drawn) -14.4%, Cc1ccc(N2CCN(C(=O)CCS(=O)(=O)c3cc4c(cc3Cl)NC(=O)CO4)CC2)c(C)c1 38.6%, CC1CCN(c2nc3c(S(=O)(=O)c4cccc(Cl)c4)nnn3c3ccsc23)CC1 -20.2%, COc1cc([N+](=O)[O-])ccc1NC(=O)N1CCC2(CC1)Nc1cc(F)ccc1-n1cccc12 -30.9%, CN(C)c1ccc(CNC(=O)C2CCN(C(=O)c3ccc(-n4ccc5ccccc54)s3)CC2)cc1 -16.5%, COc1cccc(C(=O)c2cn(CC(=O)Nc3cccc(Cl)c3C)c3nc(C)ccc3c2=O)c1 -9.24%, CCCN1Cc2cccc(C(=O)Nc3ccc(OC)cc3OC)c2C1=O 39%, Cc1ccc(NC(=O)N2CCc3c([nH]c4ccccc34)C2c2ccccc2F)c(Cl)c1 (stereo not drawn) -23.5%, O=C(Cn1c(=O)c2sccc2n(CC(=O)Nc2ccc(Cl)cc2Cl)c1=O)NCCc1ccccc1 -21.6%, CSc1ncc(C(=O)NCc2cccc(Br)c2)c(-c2ccccc2)n1 -6.48%, COCCN1C(=O)c2oc3ccc(C)cc3c(=O)c2C1c1ccc(C(=O)OC)cc1 (stereo not drawn) -1.54%, Cc1ccc(C)c(NS(=O)(=O)c2ccc3c(c2)CCCN3C(=O)C2CCC2)c1 -0.0006%, O=C(NCc1ccccc1F)C(=O)NCC(c1ccco1)S(=O)(=O)c1ccccc1 (stereo not drawn) -12.5%, Cc1ccc(C(C)C)c(OCC(=O)Nc2ccc(-c3nc4ncccc4o3)cc2C)c1 -2.28%, COc1ccc(CNS(=O)(=O)c2ccc3c(c2)C(C)(C)C(=O)N3C)cc1OC 3.99%, COC(=O)c1c(NC(=O)CCCOc2ccccc2C)sc2c1CCC2 -5.51%, COc1ccc(C(C(=O)NCc2ccccc2)N(C(=O)Cn2nnc3ccccc32)c2ccc(OC)cc2)cc1 (stereo not drawn) -8.11%, Cc1ccc(CCNC(=O)c2ccc(CNS(=O)(=O)c3ccc(F)cc3)cc2)cc1 -13.5%, O=C1CC(=O)Nc2cc(S(=O)(=O)Nc3cccc(Br)c3)ccc2N1 -5.71%, COC(=O)c1cc2sc(Cl)cc2n1Cc1nc(-c2ccccc2F)oc1C 2.79%, Cc1c(C(=O)Nc2ccccc2Cl)oc2ccc(S(=O)(=O)N3CCCCCC3)cc12 -12.2%, CC(=O)N1CCc2c(sc(NC(=O)CSc3ccc(C)cc3)c2-c2nc3ccccc3s2)C1 -23.9%, Cc1cc(C)cc(NC(=O)Nc2c[nH]c(=O)[nH]c2=O)c1 19.8%, Cc1cc(C)c2c(n1)SCC(=O)N2CC(=O)Nc1c(C)cccc1C 1.99%, COc1ccc(OC)c(CCNc2ncnc3onc(C)c23)c1 25.2%, CCn1c(CN2CCC(C)CC2)nc2cc(NC(=O)c3cccc([N+](=O)[O-])c3)ccc21 0.323%, COc1ccc(NS(=O)(=O)c2cc3c4c(c2)CC(=O)N4CCC3)cc1Cl -16.1%, O=C(NC1(C(F)(F)F)N=C(c2ccccc2)N(C2CCCCC2)C1=O)c1ccccc1F (stereo not drawn) -13.6%, COc1ccc(C(=O)Nc2ccc3c(c2)N(C)C(=O)c2ccccc2S3)cc1OC -2.83%, CCOC(=O)c1cnc2c(C)cc(C)cc2c1Nc1ccc(N2CCOCC2)cc1 14.9%, Cc1ccc(-n2nc(C)c(C(=O)NCCCN3CCN(c4ccccc4F)CC3)c2-n2cccc2)cc1 11.3%, CN(Cc1ccccc1)C(=O)c1ccc2c(c1)N(Cc1ccc(Cl)cc1)C(=O)c1ccccc1S2=O (stereo not drawn) -3.09%, CCCOc1ccccc1C(=O)Nc1nc2c(s1)CCCC2 -33%, Cc1oc(-c2ccc(Cl)cc2)nc1CN1CCCC(C(=O)NCc2ccc(Cl)cc2)C1 (stereo not drawn) 8.94%, CC(C)c1ccc(NC(=O)CSC2=Nc3ccccc3C3=NC(CC(=O)NCc4ccco4)C(=O)N23)cc1 (stereo not drawn) -26.7%, O=c1c2ccccc2n2c(-c3cccc(F)c3)nnc2n1Cc1ccccc1 -4.79%, COc1ccc(NC(=O)c2ccc3c(=O)n4nc(Nc5ccccc5C)sc4nc3c2)cc1 -13.5%, Cn1c(=O)c2c(c3ccccc31)OC(=O)CC2c1ccccc1 (stereo not drawn) 1.09%, CCc1ccccc1N1CC(c2nc3ccccc3n2CCC2CCCCC2)CC1=O (stereo not drawn) 33.5%, Cc1nnc(N2CCC(C(=O)NCc3cccc(Cl)c3)CC2)c2nn(-c3ccccc3)c(C)c12 20%, COc1cccc(NS(=O)(=O)c2ccc3[nH]cc(C(=O)N(C)Cc4ccco4)c(=O)c3c2)c1 24.7%, C1=CC2C3C=CC(C3)C2C1 (stereo not drawn) -17.6%, CCOC(=O)N1CCN(C(=O)c2cnn(-c3cccc(C)c3)c2-n2cccc2)CC1 -5.71%, COc1ccc(OC)c(NC(=O)c2cc3c(=O)n4cccc(C)c4nc3n2C)c1 0.679%, Cc1cccc(N2CCN(C(=O)c3c4c(nc5ccccc35)C(=O)N(C3CCCCC3)C4)CC2)c1C -9.26%, CN(C)c1ccc(-c2nc3ccccn3c2Nc2ccc3c(c2)OCCO3)cc1 -30.1%, Cc1ccc(N(C)C(=O)c2noc3c2CCCCC3)cc1C -7.06%, Cc1ccc(CC(=O)NCc2nc(-c3cccc(C)c3)no2)cc1 -15.7%, Cc1cccc(C)c1OCc1cc(=O)n2ccsc2n1 -8.92%, COc1cccc(NC(=O)CSc2nnc(NC(=O)NC3CCCCC3)s2)c1 0.22%, COc1cc(OC)c(NC(=O)C(C)n2nc(-c3ccc(C)c(C)c3)ccc2=O)cc1Cl (stereo not drawn) -14.8%, O=C(Nc1ccc(F)cc1)c1cccc(N2CCCS2(=O)=O)c1 -3.41%, Cc1cc(=O)n(C(C)C(=O)NCc2ccccc2Cl)c2c1c(C)nn2-c1ccccc1 (stereo not drawn) 7.3%

Reference: PubChem BioAssay AID1346428 (National Center for Advancing Translational Sciences (NCATS), 2018)
